# Reference: PubChem BioAssay AID938 (National Center for Advancing Translational Sciences (NCATS), 2007)
# About 1,800 (2.5%) of roughly 73,000 compounds were called active. Inconclusive results, whose numbers are uncertain, are shown with a selection of clear calls. The call rests on the fitted dose curve; in most records, active means well fitted activation curve with a large enough effect; inconclusive means small, poorly fitted or top-dose-only effect; inactive means no such curve, though single readings can be large or run the other way. Potencies of inconclusive entries are left out as doubtful fits.
# Assay: qHTS Assay for Agonists of the Thyroid Stimulating Hormone Receptor: Activators of Intracellular cAMP Concentrations in Parental HEK 293; further: nearly all actives have a fitted effect of over 55% in size; on activation: % of control where 0% means no effect
# Details: parental HEK293 CNG cAMP sensor, membrane potential fluorescence; activation: at 57.1 µM (top of the series) unless noted
# Outline: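 Counterscreen for endogenous-receptor signalling: CNG-channel HEK 293 cells report cAMP rise by membrane depolarization. After 60 min dye equilibration with 100 uM RO 20-1724, compounds incubated 30 min before bottom-read fluorescence at 590 nm.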
# Potency means the concentration at half of the fitted maximal effect; tags describe the fitted curve by direction and shape.
Structure (SMILES),activation,Potency
COc1nc(-c2ccccc2)ccc1-c1noc(-c2ccccc2)n1,inactive: 5.44%,–
COc1ccc(N2CCN(C(c3ccccc3OC)c3nnnn3C3CCCC3)CC2)cc1 (stereo not drawn),–,"inconclusive [activator, full curve]"
COc1ccc(OC)c(NC(=O)CSc2nnnn2-c2ccc3c(c2)OCO3)c1,–,"inconclusive [activator, single point]"
CCc1oc2ccccc2c1C(=O)c1cc(Br)c(O)c(Br)c1,–,"inconclusive [activator, single point]"
OC(COCC1CC=CCC1)Cn1cnc2ccccc21 (stereo not drawn),–,"inconclusive [activator, single point]"
CCOc1nc(-c2ccc(C)cc2)ccc1-c1noc(COC)n1,inactive: 24.2%,–
COc1cccc(C(c2nnnn2Cc2ccco2)N2CCN(c3cccc(C)c3C)CC2)c1OC (stereo not drawn),–,"inconclusive [activator, full curve]"
CCCCCCCCCCCCCCCC(=O)C(F)(F)F,inactive: 6.23%,–
Cc1ccc(S(=O)(=O)N2CCN(S(C)(=O)=O)C2)cc1,–,"inconclusive [activator, single point]"
COc1ccc(N2CCN(C(=O)c3ccc(CS(=O)(=O)c4ccc(OC)cc4)o3)CC2)cc1,–,"inconclusive [activator, single point]"
CCC(C)C(=O)Nc1c2c(nc3c1CCC3)CCCC2 (stereo not drawn),–,"inconclusive [activator, partial curve]"
COc1ccc(NC(=O)N2CCC3(CC2)CCN(S(=O)(=O)c2ccccc2)CC3)cc1,inactive: -7.08%,–
O=C(C1CCC(Cn2c(=S)[nH]c3ccccc3c2=O)CC1)N1CCOCC1 (stereo not drawn),–,"inconclusive [activator, single point]"
CCC1=C(C[C@H]2NCCc3ccccc32)C[C@@H]2c3cc(OC)c(OC)cc3CCN2C1,–,"inconclusive [activator, single point]"
Cc1c(C)c2cc3c4c(oc3c(C)c2oc1=O)CCCC4,–,"inconclusive [activator, single point]"
c1ccc(CCn2nnnc2C(c2cccs2)N2CCN(Cc3ccc4c(c3)OCO4)CC2)cc1 (stereo not drawn),–,"inconclusive [activator, single point]"
COc1ccc(NC(=O)Nc2nnc(N3CCCCC3C)s2)cc1OC (stereo not drawn),inactive: 15.1%,–
CCOC(=O)CC1=CC(C)(CC(=O)OCC)C(C#N)(C#N)C(N)=C1C#N (stereo not drawn),inactive: 1.72%,–
c1ccc(-n2cnnc2SCc2nc3ccccc3s2)cc1,inactive: -0.839%,–
O=C(CSc1nnc(-c2cccnc2)n1Cc1ccco1)NCc1ccc2c(c1)OCO2,–,"inconclusive [activator, partial curve]"
CCCCNc1nc(C)nc2c1nc(-c1ccccc1)n2CCCN(CC)CC,–,"inconclusive [activator, partial curve]"
CCCCCCCCCCCC1=C(O)C(=O)C=C(O)C1=O,–,inactive
COc1ccc(C(=O)C2CCN(S(=O)(=O)c3ccc4c(c3)OCCO4)CC2)cc1,–,"inconclusive [activator, partial curve]"
O=C(c1cccc(COc2ccc(Cl)cc2Cl)c1)N1CCN(c2ccccn2)CC1,–,"inconclusive [activator, single point]"
c1csc(-c2nn3c(C4COc5ccccc5O4)nnc3s2)c1 (stereo not drawn),–,"inconclusive [activator, single point]"

Structure (SMILES),activation,Potency
CCCCCCn1c(N2CCC(C)CC2)nc2c1c(=O)[nH]c(=O)n2C,inactive: 13%,–
Nc1ccc(-c2ccc(N)c(O)c2)cc1O,inactive: 26.1%,–
O=C(CCCCn1c(=O)[nH]c2ccccc2c1=O)N1CCN(c2ncccn2)CC1,–,"inconclusive [activator, single point]"
O=C(c1csnn1)N1CCC2(CC1)CCN(c1ccccn1)CC2,inactive: 14%,–
Clc1ccc(OCc2nn3c(-c4ccccc4)nnc3s2)c(Cl)c1,–,"inconclusive [activator, partial curve]"
Cc1cc(C)nc(SCC(=O)NCc2ccco2)n1,–,"inconclusive [activator, single point]"
Cc1ccc2c(c1)cc(CN(Cc1ccccc1)C(=O)N(C)C)c1nnnn12,–,"inconclusive [activator, partial curve]"
c1ccc(N2CCN(c3ncnc4c3oc3ccccc34)CC2)cc1,–,active: 20 µM
COc1ccc(OC)c(NS(=O)(=O)c2ccc(SC)cc2)c1,–,"inconclusive [activator, single point]"
CCc1cccc2c(-c3ccccc3)c3c(nc12)OCC3,–,"inconclusive [activator, single point]"
Cn1cccc1C(=O)N1CCC2(CCCN(C(=O)Nc3ccccc3)C2)CC1,–,"inconclusive [activator, single point]"
C/C(=N/NS(=O)(=O)c1ccc(C)cc1)P(=O)(O)O,inactive: 6.26% [at 11.4 µM],–
O=C1c2ccccc2C(=O)N1CCCCN(C(=O)c1ccco1)c1ccc(Cl)cc1,–,active: 25.1 µM
CCOC(=O)N1CCN(Cc2cc(=O)oc3ccc4ccccc4c23)CC1,–,active: 25.1 µM
CCn1c(=O)cc(OCC(=O)N(C)c2ccccc2F)c2ccccc21,–,"inconclusive [activator, single point]"
CCn1c(=NC(=O)CSCC(=O)Nc2nccs2)sc2ccccc21,–,"inconclusive [activator, single point]"
CCCN1C(=O)c2cc(C(=O)O)ccc2C1O (stereo not drawn),inactive: 1.21%,–
Cc1cc(Cl)c(S(=O)(=O)NC2CCCCC2)cc1OCC(=O)Nc1nncs1,–,"inconclusive [activator, single point]"
Cc1cccc(CNc2ccnc(-c3ccccc3C(F)(F)F)n2)c1,–,"inconclusive [activator, partial curve]"
CCOc1ccc(C(C)=O)cc1CSc1nnc(-c2cccs2)n1CC1CCCO1 (stereo not drawn),–,active: 10 µM
CCc1ccccc1NS(=O)(=O)c1ccc(SC)cc1,inactive: 14.6%,–
O=c1[nH]nc(CSCc2ccccc2Cl)[nH]1,–,"inconclusive [activator, partial curve, poor fit]"
O=C(COc1ccccc1Cl)Nc1ccc2c(c1)OCCO2,–,"inconclusive [activator, partial curve]"
Cc1nc(COC(=O)c2c(C)nn(-c3ccccc3)c2C)cs1,–,"inconclusive [activator, single point]"
N#Cc1nc(-c2ccc(OCc3ccc(Cl)cc3)cc2)oc1NCCCn1ccnc1,inactive: -10.9%,–

Structure (SMILES),activation,Potency
O=C(Cn1nc(-c2ccccc2)c2ccccc2c1=O)Nc1ccc2c(c1)nc1n2CCOC1,–,"inconclusive [activator, single point]"
CCOC(=O)c1c(-c2ccc(C)o2)csc1NC(=O)COC(=O)c1cccs1,–,"inconclusive [activator, full curve, poor fit]"
COc1ccc(C(CC(=O)O)NC(=O)Cc2ccccc2)cc1 (stereo not drawn),–,"inconclusive [activator, full curve]"
CCC(C)c1ccc(NC(=O)C2CCCN(c3ncccn3)C2)cc1 (stereo not drawn),–,"inconclusive [activator, single point]"
O=C(NC12CC3CC(CC(C3)C1)C2)N1CCN(S(=O)(=O)c2ccc(Cl)cc2)CC1,–,"inconclusive [activator, single point]"
CO[C@@H]1/C=C\CC(=O)N[C@@H](C)C(=O)OC[C@@H](OC)[C@H](C)/C=C\CC(=O)OC[C@H]1C,inactive: -1.95% [at 11.4 µM],–
COCCn1cnnc1SCC(=O)c1ccc(S(=O)(=O)N2CCCC2)cc1,inactive: -1.4%,–
NS(=O)(=O)c1ccc(N=Nc2nc3[nH]c(=O)[nH]c(=O)c3[nH]2)cc1,inactive: 0.956% [at 11.4 µM],–
c1csc(-c2nc3ccccc3[nH]2)c1,inactive: 3.54%,–
CC1(C)NC(C)(C)C(O)(C(N)=O)C1=O (stereo not drawn),–,"inconclusive [activator, single point]"
N#Cc1nc(COc2ccccc2Cl)oc1N1CCCCCC1,–,"inconclusive [activator, single point]"
O=C(CN1CCN(c2nc(-c3ccccc3)cs2)CC1)NCc1ccc2c(c1)OCO2,–,"inconclusive [activator, partial curve]"
CCOC(=O)N1CCN(c2ccc(C(=O)c3ccccc3)cc2F)CC1,–,"inconclusive [activator, partial curve]"
CCOC(=O)C1C(=O)CC(C)(O)C(C(=O)OCC)C1c1ccc(OCC)cc1 (stereo not drawn),–,"inconclusive [activator, full curve]"
COc1ccccc1NC(=O)CSc1nnc(-c2ccncc2)o1,–,"inconclusive [activator, single point]"
COC(=O)N1CCC[C@@]2(CCN(C(=O)Nc3cccc(C#N)c3)C2)C1,inactive: 13.1%,–
CCCCCCCCOc1ccc(C(=O)O)cc1,–,"inconclusive [activator, single point]"
COc1ccccc1CNc1cc(-c2ccccc2OC)ncn1,–,active: 15.8 µM
COc1cccc(-c2nc(CS(=O)(=O)CC(=O)NCCC(C)C)c(C)o2)c1,–,"inconclusive [activator, full curve]"
Cn1c(=O)c2c(SCc3cccc(C(F)(F)F)c3)nc(-c3ccco3)nc2n(C)c1=O,inactive: 20.5%,–
c1ccc(-c2nc(N3CCCCCC3)nc(-n3ccnc3)n2)cc1,inactive: 29.9%,–
c1c[nH]c(CN2CCOCC2)n1,inactive: 7.04% [at 11.4 µM],–
Nc1ccccc1N=Nc1c(S(=O)(=O)O)cc2cc(S(=O)(=O)O)cc(O)c2c1O,inactive: 11.2% [at 11.4 µM],–
